In publication PMC4336329 (PLoS ONE, 2015):
The whole screen tested about 310,000 compounds, of which about 2,200 (0.71%) showed an effect of 50% or more. Effects have a minus sign here. Some of the results follow.

These compounds were tested against human ether-à-go-go-related gene (hERG) potassium channel (human, UniProt Q12809) (assay: primary screen, population patch clamp on CHO cells stably expressing hERG).
Chain of human ether-à-go-go-related gene (hERG) potassium channel (Q12809 whole entry, looked up): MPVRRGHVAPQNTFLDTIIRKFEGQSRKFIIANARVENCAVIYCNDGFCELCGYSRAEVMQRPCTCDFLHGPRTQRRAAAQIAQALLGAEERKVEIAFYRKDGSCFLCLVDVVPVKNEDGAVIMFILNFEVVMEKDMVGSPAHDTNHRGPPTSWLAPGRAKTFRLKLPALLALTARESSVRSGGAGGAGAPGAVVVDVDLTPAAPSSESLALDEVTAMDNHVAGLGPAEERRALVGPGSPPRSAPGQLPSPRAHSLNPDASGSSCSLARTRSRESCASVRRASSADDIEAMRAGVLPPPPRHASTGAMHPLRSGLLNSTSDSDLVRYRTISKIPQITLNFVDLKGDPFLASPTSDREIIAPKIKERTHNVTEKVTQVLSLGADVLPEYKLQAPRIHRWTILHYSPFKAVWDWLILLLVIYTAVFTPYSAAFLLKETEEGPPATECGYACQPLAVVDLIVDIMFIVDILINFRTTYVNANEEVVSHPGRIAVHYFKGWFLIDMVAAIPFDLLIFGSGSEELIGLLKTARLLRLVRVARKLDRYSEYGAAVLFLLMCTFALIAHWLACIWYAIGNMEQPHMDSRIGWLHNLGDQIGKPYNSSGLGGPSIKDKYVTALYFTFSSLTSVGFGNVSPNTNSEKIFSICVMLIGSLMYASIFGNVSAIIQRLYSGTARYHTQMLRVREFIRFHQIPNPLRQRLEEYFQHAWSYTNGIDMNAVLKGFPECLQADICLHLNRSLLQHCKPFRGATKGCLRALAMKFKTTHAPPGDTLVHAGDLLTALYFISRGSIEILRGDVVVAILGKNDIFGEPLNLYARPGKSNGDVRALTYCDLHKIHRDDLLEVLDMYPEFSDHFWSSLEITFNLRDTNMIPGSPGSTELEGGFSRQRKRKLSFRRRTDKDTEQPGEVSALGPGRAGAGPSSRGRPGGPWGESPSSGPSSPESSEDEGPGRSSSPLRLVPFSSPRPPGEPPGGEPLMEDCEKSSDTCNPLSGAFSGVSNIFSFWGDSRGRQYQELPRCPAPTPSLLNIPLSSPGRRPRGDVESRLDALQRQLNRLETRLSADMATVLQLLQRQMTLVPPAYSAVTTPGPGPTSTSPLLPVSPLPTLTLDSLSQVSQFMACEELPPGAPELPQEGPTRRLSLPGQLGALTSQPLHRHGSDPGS

Compound	hERG current change (%, negative = inhibition) at 1uM
O=C(c1nsnc1-c1ccccc1O)N1CCCCC1	8.04%
O=C(/C=C/c1cccc(F)c1)Nc1nccs1	14.1%
O=C(COc1ccc(Br)cc1)OCc1nnc(-c2ccccc2)o1	15%
COCCNc1nnc(SCC(=O)Nc2cc(-c3ccccc3)nn2-c2ccccc2)s1	-8.14%
CCCCOc1[nH]c2nc(-c3ccco3)n(Cc3ccco3)c(=N)c2c1C#N	-42.2%
COc1ccnc(Oc2ccc(Cl)cc2)c1C#N	-10.3%
COc1ccc(N2CCN(C(=O)CN3CCN(C(c4ccccc4)c4ccccc4)CC3)CC2)cc1.Cl	4.35%
O=c1[nH]c(CN2CCN(c3ccccn3)CC2)nc2c(Br)cc(Br)cc12	-4.19%
CC(C)C[C@H](N)C(=O)N1CCC(C(=O)N[C@H](C(=O)NCc2ccc(F)cc2)C(C)C)CC1	-4.97%
Cc1ccc(S(=O)(=O)CC(=O)c2cc3cccc(C)c3oc2=O)cc1	6.82%
Cc1ccc(CNC(=O)c2nnn(CC(=O)Nc3cccc(C)c3C)c2N)cc1	14.4%
COc1ccc(CNS(=O)(=O)c2ccc(F)c(C(=O)Nc3ccc(OC)cc3)c2)cc1	6.72%
CC1=Nc2ccccc2/C1=C\c1nc(-c2ccc(C(F)(F)F)cc2)oc1O	11.8%
CCCOc1ccc([N+](=O)[O-])cc1C1NC(=S)NC(c2ccccc2)=C1C(=O)OCC (centres unmarked)	11.7%
CCCCOC(=O)C1CCCC(C(=O)OCCCC)N1.Cl (centres unmarked)	15.7%
Cc1ccc2c(c1)c(C)cc(=O)n2CCC(=O)O	15.5%
O=C(NCCN1CCOCC1)/C(=C/c1ccco1)NC(=O)c1ccccc1	-16%
COCCn1nnnc1SCC(=O)NCc1ccc2c(c1)OCO2	18%
C=CCNC(=O)C1(S(=O)(=O)c2ccccc2)CC=CC1	4.76%

Compound	hERG current change (%, negative = inhibition) at 1uM
COCCNc1c2c(c(C#N)c3nc4ccccc4n13)CCCC2	0.212%
Cc1ccc(C(c2nnnn2C2CCCC2)N2CCN(c3nc4ccccc4s3)CC2)cc1 (centres unmarked)	12.7%
COc1ccc(N2CCN(C(=O)Cn3cnc4sc(C)c(S(=O)(=O)N5CCOCC5)c4c3=O)CC2)cc1	4.47%
CCOC(=O)c1ccc(NC(=S)NCC(O)c2ccccc2)cc1 (centres unmarked)	-3.49%
CC(CC(=O)Nc1ccc(C(N)=O)cc1)c1ccccc1 (centres unmarked)	14.2%
CCC1COCCS(=O)(=O)N1Cc1ccc(C)cc1 (centres unmarked)	6.27%
c1ccc(Cc2nnc3n2N=C(c2ccccc2)CS3)cc1	3.04%
CCOC(=O)CSc1nnc(SCCN2C(=O)c3ccccc3C2=O)s1	0.0774%
CCC(=O)OC1(C)C(=O)C2=COC(c3ccc(OC)cc3)=CC2=C(Br)C1=O (centres unmarked)	5.4%
COc1ccc(CN2C(=NC(=O)c3ccccc3)SC3CS(=O)(=O)CC32)cc1 (centres unmarked)	21.9%
CC(=O)C1=C(O)C(=O)N(c2ccc(Br)cn2)C1c1ccccc1F (centres unmarked)	17.2%
O=C(NCc1cn2ccccc2n1)c1ccco1	14.2%
CC(O)c1nc2ccccc2n1Cc1nnc(-c2ccc(Cl)cc2)o1 (centres unmarked)	8.11%
Cc1ccccc1OCC(=O)Nc1ccc2c(c1)OCCO2	0.568%
O=C(c1cc(-c2ccc(Br)cc2)on1)N1CCOCC1	10.8%
Cc1c(N2C(=O)CSC23C(=O)Nc2ccccc23)c(=O)n(-c2ccccc2)n1C (centres unmarked)	10.9%
COc1cc([N+](=O)[O-])cc2sc(NC(=O)C3CC3)nc12	11.3%
CCCn1c(N2CCN(CC(=O)c3c[nH]c4ccccc34)CC2)nc2c1c(=O)[nH]c(=O)n2C	9.82%
CCCOc1ccc(-c2c(C(=O)N/N=C/c3cccnc3)nnn2-c2nonc2N)cc1	7.08%

Compound	hERG current change (%, negative = inhibition) at 1uM
FC(F)(F)c1cc(NCc2cccs2)n2ncnc2n1	5.9%
CCN(CC)C(=O)c1ccc(N2C(=O)C3CC=C(Cl)CC3C2=O)cc1 (centres unmarked)	17.4%
O=C(Nc1ccccc1)c1c2c(nc3ccccc13)CCCC2	7.4%
O=C(CCN1C(=O)C2C3C=CC(C4CC34)C2C1=O)Oc1cccc2cccnc12 (centres unmarked)	2.35%
Cc1noc(C(=O)N2CCN(c3ccccc3)CC2)c1Cl	11.4%
CCOC(=O)c1ccc(NC(=O)c2cc(C)nc3ccccc23)cc1	14.9%
CC1CN(C(=O)c2cc3ccccc3oc2=O)CC(C)O1 (centres unmarked)	-4.51%
CCn1c(SCc2ccc(C#N)cc2)nnc1-c1cccc(Cl)c1	-35.8%
CC1(C)CC(=O)C(C=NCCN2CCN(C3CC(=O)N(c4ccc(Cl)c(Cl)c4)C3=O)CC2)=C(O)C1 (centres unmarked)	-1.47%
CCOC(=O)N1CCC(N(CCN(C)C)C(=S)Nc2cc(Cl)cc(Cl)c2)CC1	8.64%
CC(=O)NCCC(=O)NCC1(N(C)Cc2ccccc2)Cc2ccccc2C1	17.6%
CC(COc1ccc(C(C)C)cc1)NC(=O)c1ccc(Br)o1 (centres unmarked)	5.58%
Cc1c(CC(=O)NCC(=O)O)c(=O)oc2cc3c(cc12)CCC(C)(C)O3	9.94%
CCCCNC(=O)C(=O)NCC1CCCN1S(=O)(=O)c1cccs1 (centres unmarked)	5.32%
CC(C)C(C(=O)NCC1CCCO1)N(Cc1ccco1)C(=O)CNS(=O)(=O)c1ccc(F)cc1 (centres unmarked)	-6.77%
CCOC(=O)N1CCN(C(=O)Nc2ccc3oc(C)nc3c2)CC1	10.9%
N#Cc1cc([N+](=O)[O-])ccc1NC(=O)COC(=O)CCC1CCCCC1	15.8%
COc1ccc(Nc2ccc(Nc3ccc(OC)cc3)nn2)cc1	13.9%
